Results: US20140243227A1, “CULTURE MEDIA FOR STEM CELLS” (Koninklijke Nederlandse Akademie van Wetenschappen, priority 2011, published 2014)

Tested on: pancreatic organoids
Experiment: Effect of Noggin on gene expression of pancreatic organoids in expansion medium
Conditions: EGFRAN vs EGFRA medium

B1: Noggin: BMP inhibitor (protein, UniProt Q13253 28-232, looked up)
Noggin: QHYLHIRPAPSDNLPLVDLIEHPDPIFDPKEKDLNETLLRSLLGGHYDPGFMATSPPEDRPGGGGGAAGGAEDLAELDQLLRQRPSGAMPSEIKGLEFSEGLAQGKKQRLSKKLRRKLQMWLWSQTFCPVLYAWNDLGSRFWPRYVKVGSCFSKRSCSVPEGMVCKPSKSVHLTVLRWRCQRRGGQRCGWIPIQYPIISECKCSC
Question: B1 was tested. Which “Expression of keratin 7 and keratin 19 (ductal markers)” value did it give?
Answer: reduces the expression
